The text below walks through data of PubChem BioAssay AID463173 (ICCB-Longwood Screening Facility, Harvard Medical School, 2010).

The structures appear in SMILES notation. Screen size: about 52,000 compounds; about 4,300 (8.3%) were called active. No stated cut-off is given here; in the data, active means survival mostly below about 52% (no sharp cut-off); inactive means mostly above about 56%. This is one part of the list.

This assay relates to DeltatarO mutant. Kind of assay: S. aureus survival, RN4220 and DeltatarO strains – OD600, teichoic acid synthesis inhibitors, primary screen (AID 463173). Conditions: S. aureus RN4220 wild type/DeltatarO growth, OD600, 18 h, stronger effect = lower value, screened at 18.75 µg/mL (by protocol).
As to `Cc1cccc(NC(=O)CSc2nnc3c4ccccc4n(C)c3n2)c1`, the survival is inactive: 74%.
With `CCc1ccc(S(=O)(=O)c2cn(CC(=O)Nc3cccc(C)c3)c3ccc(Cl)cc3c2=O)cc1` the figure was inactive: 72%; with `CC1=NN(C(=O)c2ccccc2Cl)C(O)(C2CCCCC2)C1` (stereo unspecified), inactive: 73%.
For the compound `COC(=O)c1ccccc1NC(=O)N(Cc1ccc(C)cc1)Cc1cccn1-c1nnc(N2CCCC2=O)s1`, the survival is inactive: 123%.
For `CCOC(=O)c1[nH]c(C)c(CCC(=O)NCc2ccc(OC(C)C)cc2)c1C` the value was inactive: 80%.
With `COc1ccc(C)cc1NC(=O)C1CCN(S(=O)(=O)c2cccc3nonc23)CC1` the figure was inactive: 108%; with `Cc1ccc(CNS(=O)(=O)c2c(C(=O)N3CCC(C)CC3)c(C)n(C)c2C)cc1`, inactive: 87%.
With `CC(C)Oc1ccc(CNC(=O)C2CCCN(S(=O)(=O)c3ccc4c(ccn4C)c3)C2)cc1` (stereo unspecified) the figure was inactive: 118%.
For the compound `CCCn1cc(S(=O)(=O)c2ccc(OC)cc2)c(=O)c2cc(F)c(N3CCCCCC3)cc21`, the survival was inactive: 72%.
As to `Cc1ccc(CSc2nnc3[nH]c(=O)cc(C)n23)cc1`, the survival was inactive: 71%.
With `CCn1cc(S(=O)(=O)c2ccc(C)cc2C)c(=O)c2cc(F)c(N3CCCC3)cc21` the figure was inactive: 89%; with `COc1ccc(CN2CCN(S(=O)(=O)c3ccccc3)CC2)c(OC)c1`, inactive: 61%.
With `CCCN1C(=O)C2(c3ccccc31)c1c(oc3cc(C)c(C)cc3c1=O)C(=O)N2CCCOC` (stereo unspecified) the figure was active: 55%; with `CCC(=O)N1c2ccccc2CC1C(=O)NCCc1ccc(OC)cc1OC` (stereo unspecified), inactive: 55%.
For `O=S(=O)(c1ccc(-n2cnnn2)cc1)N(Cc1ccccn1)C1CC1` the value was inactive: 97%; for `COc1cc(NC(=O)CSc2ccc(-c3sc(-c4ccccc4)nc3C)nn2)cc(OC)c1`, active: 19%; for `CCCc1cc(=O)[nH]c2nnc(SCCC(C)C)n12`, inactive: 90%.
Take `COC(=O)c1c(NC(=O)COc2ccc(OC)cc2)sc2c1CCC(C)C2` (stereo unspecified): the survival is inactive: 66%.
Consider `CCCNC(=O)c1c2c(nc3ccccc13)C(=O)N(C1CCCCC1)C2`, for which the survival was inactive: 75%.
Turning to `Cc1cccn2c(=O)c(/C=C(\C#N)c3nc4ccccc4n3C)c(Oc3ccc(Cl)cc3)nc12`, the survival is inactive: 65%.
With `CCCc1cc(=O)[nH]c2nnc(SCC(=O)Nc3cccc(C)c3)n12` the figure was inactive: 80%; with `O=C(NCC1CCCO1)Nc1ccccc1` (stereo unspecified), inactive: 90%.
With `COc1cccc(-c2cc(C(=O)Nc3ccc(F)cc3)[nH]n2)c1` the figure was inactive: 73%; with `COc1ccc(OC)c(NC(=O)[C@H](Cc2ccccc2)N2Cc3ccccc3C2=O)c1`, inactive: 108%; with `O=C(CC1C(=O)N(c2ccccc2)C(=O)N1CCc1cccs1)Nc1ccc(Cl)cc1` (stereo unspecified), inactive: 55%.
For `Cc1c(C(=O)Nc2cccc(C(F)(F)F)c2)oc2ccc(S(=O)(=O)N(C)C3CCCCC3)cc12` the value was inactive: 85%; for `CCNC(=O)c1ccc(-n2c(-c3ccccc3)cc3c2CCCCC3)cc1`, active: 43%.
Consider `COc1cccc(CNC(=O)CCc2c(C)nn(-c3ccc(N4CCOCC4)nn3)c2C)c1`, for which the survival was inactive: 100%.
On to `COc1ccc(S(=O)(=O)N(C)CC(=O)N2CCCC2)cc1`, for which the survival is inactive: 80%.
With `Nc1nc2n(n1)C(c1cccs1)CC(c1ccc(Cl)cc1Cl)N2` (stereo unspecified) the figure was inactive: 93%; with `COc1ccc(CC(=O)NC2CCN(CC(=O)Nc3ccc4c(c3)CCC4)CC2)cc1OC`, inactive: 96%; with `CCOC(=O)CNc1ncnc2c1nnn2C`, inactive: 49%.
For `CC(=O)Nc1nonc1-c1nnc(SCc2ccc(C)cc2)n1C`, the survival is inactive: 48%.
With `COc1ccc(OC)c(NC(=O)c2nc(SCc3ccccc3F)ncc2Cl)c1` the figure was inactive: 70%; with `COc1cccc(NC(=O)C2CCCN2S(=O)(=O)c2ccc3c(c2)n(C)c(=O)c(=O)n3C)c1` (stereo unspecified), inactive: 87%.
For `CC1C(=O)N2CCCc3cc(S(=O)(=O)Nc4ccc(Br)cc4F)cc1c32` (stereo unspecified) the value was inactive: 90%; for `COc1ccc(OC)c(NC(=O)CCN2CCC(C)CC2)c1`, inactive: 79%; for `CC1CCN(S(=O)(=O)c2ccc(S(=O)(=O)NCc3ccccc3)cc2)CC1`, inactive: 67%.
For `CCOc1cc(-c2nnc(SCC(=O)NCc3ccc(C)cc3)nc2-c2ccc(OC)c(OCC)c2)ccc1OC` the value was inactive: 78%; for `Cc1ccc(OCC(=O)OCc2cc(=O)n3c(C)csc3n2)cc1`, inactive: 86%; for `Cc1ccccc1NC(=O)N1CCC(CN2CCCC2)CC1`, inactive: 83%.
As to `N#CC1=C2SCN(C3CCCCC3)CN2C(=O)CC1c1ccc(F)cc1` (stereo unspecified), the survival was inactive: 87%.
For `CCC(=O)N1CCc2cc(S(=O)(=O)NC(Cc3ccccc3)C(=O)NCc3ccc(F)cc3)ccc21` (stereo unspecified) the value was inactive: 60%; for `CCc1cccc(-n2c(=O)c3cccnc3n2CC(=O)Nc2ccccc2C(=O)OC)c1`, inactive: 73%.
For `CCC1CN(C(=O)Nc2cc(OC)cc(OC)c2)c2ccccc2S1` (stereo unspecified) the value was inactive: 97%.
As for `CCOc1ccc(NC(=O)c2ccc3nc(Cc4ccccc4)oc3c2)cc1`, the survival is inactive: 103%.
For `Cc1ccc2oc(C(=O)Nc3sc4c(c3C(=O)NCc3ccccc3)CCCC4)cc(=O)c2c1` the value was inactive: 66%; for `CCn1cc(C(=O)N2CCN(c3ccccc3OC)CC2)c(=O)c2cc(S(=O)(=O)N3CCC(C)CC3)ccc21`, inactive: 85%.
For `Cc1ccc(-n2ncc3c(N4CCCCCC4)ncnc32)cc1C` the value was inactive: 86%; for `COc1ccccc1CNC(=O)c1ccc2c(c1)N(Cc1ccc(C)cc1)CCS2`, inactive: 83%; for `COc1ccc(CSCCN)cc1Cl`, inactive: 74%.
For `CC(C)N(C(=O)Cn1nnc2ccccc21)C(C(=O)NCc1ccco1)c1ccccc1` (stereo unspecified) the value was inactive: 95%; for `CCc1ccccc1NC(=O)CN1C(=O)COc2ccc(S(=O)(=O)N3CCCCCC3)cc21`, inactive: 88%.
For `CCN(CC)S(=O)(=O)c1ccc2c(c1)N(CC(=O)NCC(C)c1ccccc1)C(=O)CO2` (stereo unspecified), the survival is inactive: 82%.
For `O=S1(=O)CCC(NS(=O)(=O)c2ccccc2)C1` (stereo unspecified) the value was inactive: 96%; for `CCN(CC)C(=O)C1=CC(c2ccc3c(c2)OCO3)=NS(=O)(=O)N1C`, inactive: 86%.
With `Cc1ccc(NC(=O)CSc2nc3ccc(NC(=O)CCc4ccccc4)cc3s2)c(C)c1`, the survival was inactive: 79%.
As for `O=C(CCCCn1c(=O)c2ccccc2n(Cc2ccccc2F)c1=O)NCc1ccccc1Cl`, the survival is active: 97%.
With `O=S(=O)(NCCc1nnc2ccc(SCc3c(F)cccc3Cl)nn12)c1ccccc1` the figure was inactive: 58%.
For `CCC(Oc1ccccc1)C(=O)Nc1ccc(OCc2cc(=O)n3ccc(C)cc3n2)cc1` (stereo unspecified), the survival was inactive: 91%.
For `Cc1oc(-c2ccccc2F)nc1CSCC(=O)NCCc1ccccc1` the value was inactive: 94%; for `CNS(=O)(=O)c1cn(CC(=O)N2CCN(c3cccc(Cl)c3)CC2)cc1S(=O)(=O)NC`, inactive: 69%; for `COc1ccc(NC(=O)C2=C(C)Nc3ncnn3C2c2ccccn2)cc1` (stereo unspecified), inactive: 81%.
With `CCCCn1cc(S(=O)(=O)c2ccccc2)c(=O)c2cc(F)c(N3CCC(C)CC3)cc21` the figure was inactive: 68%; with `CCOC(=O)c1cnc2c(C)cc(C)cc2c1Nc1ccc(OCc2ccccc2)cc1`, active: 17%; with `NC(=O)CSc1n[nH]c(-c2ccco2)n1`, inactive: 64%.
With `O=C(CN1CCN(CC(=O)Nc2ccccc2F)CC1)Nc1ccc(Cl)c(C(F)(F)F)c1` the figure was inactive: 83%.
On to `CCOC(=O)C1=C(C(F)(F)F)Nc2ncnn2C1c1cccc(OC)c1OC` (stereo unspecified), for which the survival was inactive: 82%.
With `CC(C)CCNC(=O)c1cc(Sc2ccc(F)cc2F)nc2ccccc12` the figure was inactive: 64%; with `CCC(=O)N(C)c1nnc(-c2cccc(C)c2)s1`, inactive: 76%.
For `CCCCOc1ccc(CN2C(=O)C(=O)c3cc(C)ccc32)cc1OC` the value was inactive: 122%; for `COc1ccccc1CNc1ccc(-c2nc(-c3cccc(C)c3)no2)cc1[N+](=O)[O-]`, inactive: 86%; for `CCN(CC)C(=O)c1sc2c(c1C)c(=O)n(CCc1ccccc1)c(=O)n2Cc1cccc(Cl)c1`, inactive: 102%.
For `CCOc1ccccc1N1CC(c2nc3ccccc3n2CCCCOc2cc(C)ccc2C)CC1=O` (stereo unspecified) the value was active: 47%.
In the case of `CN(C)c1ccc(CNC(=O)c2ccc3c(c2)N(C)C(=O)C2CCCCN32)cc1` (stereo unspecified), the survival is inactive: 117%.
With `O=C(c1cnc(N2CCOCC2)c2ccccc12)N1CCN(c2ccccc2F)CC1` the figure was inactive: 71%; with `O=C(NC1CCCC1)C1CCCN1C(=O)Nc1ccccc1` (stereo unspecified), inactive: 89%; with `CCOc1ccc(CNC(=O)CCc2cn(CC)c3ccccc23)cc1`, inactive: 76%.
Consider `COc1cccc(C(=O)Nc2ccc3c(c2)COC3=O)c1`, for which the survival was inactive: 77%.
With `CCNc1nc(N2CCCC2)nc(N2CCCC2)n1` the figure was inactive: 100%; with `CCc1ccc(NC(=O)C2CCN(S(=O)(=O)c3c(C)noc3/C=C\c3ccc(OC)cc3)CC2)cc1`, inactive: 66%; with `COc1cc(C(=O)Nc2ccc(OCc3cc(=O)n4cccc(C)c4n3)cc2)cc(OC)c1OC`, inactive: 128%.
For `O=C(NCCc1ccccc1)c1ccc(CSc2nc3ccncc3n2Cc2cccc(F)c2)cc1` the value was inactive: 109%; for `CCC1=C(c2ccc(C)cc2)S(=O)(=O)N=C1N1CCC(C(=O)N2CCCCC2)CC1`, inactive: 92%; for `CCS(=O)(=O)NCCc1csc2nc(-c3ccc(C)cc3)nn12`, inactive: 83%.
In the case of `O=C(COCc1cc(-c2cccs2)on1)Nc1cccc(O)c1`, the survival was active: 0%.
For `Cc1ccc(C)c(NC(=O)Nc2csc3c2CCCC3)c1` the value was inactive: 75%; for `CCOc1ccc2nc(N3CCCC(C(=O)NCc4ccc(C)cc4)C3)sc2c1` (stereo unspecified), inactive: 71%.
For `COc1ccc2sc(N)nc2c1` the value was inactive: 93%; for `COc1ccccc1NC(=O)Cn1c(=O)n(Cc2nc(-c3ccccc3)no2)c(=O)c2ccccc21`, inactive: 96%; for `COc1ccc(-c2nn(C)c3sc(C(=O)N4CCN(c5cccc(Cl)c5)CC4)cc23)cc1OC`, active: 54%.
